Values quoted from earlier work as cited in patent US20250134850A1 (priority 2023, published 2025).

Conditions: for target V40

Structure (SMILES): COc1cc(O[C@@H]2O[C@H](CO)[C@@H](O)[C@H](O)[C@H]2O)c2c(=O)cc(-c3ccccc3)oc2c1OC [Andrographidine C]
- absorption, distinguishing, metabolism and excretion (ADME) qualities: strong
